Some of the results follow. Sequences were assembled here from the parent chain. Inactive controls read about 0.05.

The values below come from the supplement of paper PMC12217912.

B1: TEV protease; numbered along this chain (parent)
chain: MGESLFKGPRDYNPISSSICHLTNESDGHTTSLYGIGFGPFIITNKHLFRRNNGTLVVQSLHGVFKVKDTTTLQQHLVDGRDMIIIRMPKDFPPFPQKLKFREPQREERICLVTTNFQTKSMSSMVSDTSCTFPSGDGIFWKHWIQTKDGQCGSPLVSTRDGFIVGIHSASNFTNTNNYFTSVPKNFMELLTNQEAQQWVSGWRLNADSVLWGGHKVFMVKPEEPFQPVKEATQL

In the test the parent is B1. The test can be described thus: raw area under fraction-flipped curve 0-4 h after induction (AUC4h, not background-subtracted), DNA-recorder readout of cleavage of the substrate (dimensionless); higher = more cleavage of the substrate by the protease variant. To be noted: temperature: 34 °C; time window: 0-4 h after rhamnose induction. As to the method: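 In vivo DNA recorder in E. coli TOP10(DE3) ΔrhaA at 34 °C. Each TEVp single-site mutant (parent TEVp 0) is paired with a single-site variant of the 7-mer TEVs (canonical ENLYFQ|S). The substrate sits between flexible linkers in a Bxb1-sfGFP-TEVs-SsrA fusion, so cleavage stabilises Bxb1 and speeds flipping of a recombination array, read by NGS. The value is the raw area under the fraction-flipped curve over 0-4 h after rhamnose induction (AUC4h), with ≥20 reads per time point. It is not background-subtracted; inactive controls average about 0.047.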
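Note: Bxb1 expression induced with 0.2% (w/v) L-rhamnose at OD600 near 0.5, cultures sampled hourly, flipped fraction per protease–substrate barcode pair counted by paired-end Illumina sequencing.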

In the case of MGESLFKGPRDYNPISSSICHLTNEYDGHTTSLYGIGFGPFIITNKHLFRRNNGTLVVQSLHGVFKVKDTTTLQQHLVDGRDMIIIRMPKDFPPFPQKLKFREPQREERICLVTTNFQTKSMSSMVSDTSCTFPSGDGIFWKHWIQTKDGQCGSPLVSTRDGFIVGIHSASNFTNTNNYFTSVPKNFMELLTNQEAQQWVSGWRLNADSVLWGGHKVFMVKPEEPFQPVKEATQL [S26Y], the “area with substrate ENAYFQS” value worked out at 0.053, the “area with substrate ENEYFQS” value was 0.068, the “area with substrate ENIYFQS” value is 0.0763 and the “area with substrate ENKYFQS” value was 0.0176. Further, the “area with substrate ENQYFQS” value was found to be 0.0595, the “area with substrate ENRYFQS” value is 0.0425, the “area with substrate ENSYFQS” value is 0.0529 and the “area with substrate ENTYFQS” value amounted to 0.0625. Besides, the “area with substrate ENVYFQS” value was determined as 0.0444.

For MGESLFKGPRDYNLISSSICHLTNESDGHTTSLYGIGFGPFIITNKHLFRRNNGTLVVQSLHGVFKVKDTTTLQQHLVDGRDMIIIRMPKDFPPFPQKLKFREPQREERICLVTTNFQTKSMSSMVSDTSCTFPSGDGIFWKHWIQTKDGQCGSPLVSTRDGFIVGIHSASNFTNTNNYFTSVPKNFMELLTNQEAQQWVSGWRLNADSVLWGGHKVFMVKPEEPFQPVKEATQL [P14L], the “area with substrate ENAYFQS” value is 0.0708, the “area with substrate ENCYFQS” value is 0.0817, the “area with substrate ENDYFQS” value was 0.0667 and the “area with substrate ENEYFQS” value was 0.0496. Also, the “area with substrate ENFYFQS” value stood at 0.0674, the “area with substrate ENGYFQS” value turned out to be 0.0589, the “area with substrate ENIYFQS” value is 0.108 and the “area with substrate ENKYFQS” value was found to be 0.0695. Further, the “area with substrate ENMYFQS” value was determined as 0.0937, the “area with substrate ENNYFQS” value came out at 0.0622, the “area with substrate ENPYFQS” value was determined as 0.0587 and the “area with substrate ENQYFQS” value is 0.0608. Moreover, the “area with substrate ENRYFQS” value worked out at 0.0803, the “area with substrate ENSYFQS” value came to 0.0747, the “area with substrate ENTYFQS” value stood at 0.0577 and the “area with substrate ENVYFQS” value worked out at 0.0836. The “area with substrate ENWYFQS” value stood at 0.0639 and the “area with substrate ENYYFQS” value stood at 0.0649.

MGESLFKGPRDYNPISSSICHLTNMSDGHTTSLYGIGFGPFIITNKHLFRRNNGTLVVQSLHGVFKVKDTTTLQQHLVDGRDMIIIRMPKDFPPFPQKLKFREPQREERICLVTTNFQTKSMSSMVSDTSCTFPSGDGIFWKHWIQTKDGQCGSPLVSTRDGFIVGIHSASNFTNTNNYFTSVPKNFMELLTNQEAQQWVSGWRLNADSVLWGGHKVFMVKPEEPFQPVKEATQL [E25M]: the “area with substrate ENAYFQS” value amounted to 0.0631, the “area with substrate ENCYFQS” value was determined as 0.0721, the “area with substrate ENDYFQS” value worked out at 0.0593 and the “area with substrate ENEYFQS” value came to 0.0556. Also, the “area with substrate ENFYFQS” value was found to be 0.0595, the “area with substrate ENGYFQS” value is 0.0589, the “area with substrate ENHYFQS” value was 0.0618 and the “area with substrate ENIYFQS” value came to 0.115. The “area with substrate ENKYFQS” value amounted to 0.0555, the “area with substrate ENMYFQS” value turned out to be 0.0951, the “area with substrate ENPYFQS” value was 0.0601 and the “area with substrate ENQYFQS” value amounted to 0.0582. Besides, the “area with substrate ENRYFQS” value worked out at 0.0514, the “area with substrate ENSYFQS” value was determined as 0.0641, the “area with substrate ENTYFQS” value was 0.0596 and the “area with substrate ENVYFQS” value turned out to be 0.0683. Further, the “area with substrate ENWYFQS” value came out at 0.0455 and the “area with substrate ENYYFQS” value was 0.093.

As to MGESLFKGPRDYNPISSSICHLTNHSDGHTTSLYGIGFGPFIITNKHLFRRNNGTLVVQSLHGVFKVKDTTTLQQHLVDGRDMIIIRMPKDFPPFPQKLKFREPQREERICLVTTNFQTKSMSSMVSDTSCTFPSGDGIFWKHWIQTKDGQCGSPLVSTRDGFIVGIHSASNFTNTNNYFTSVPKNFMELLTNQEAQQWVSGWRLNADSVLWGGHKVFMVKPEEPFQPVKEATQL [E25H], the “area with substrate ENAYFQS” value is 0.0519, the “area with substrate ENCYFQS” value was determined as 0.0712, the “area with substrate ENDYFQS” value stood at 0.06 and the “area with substrate ENEYFQS” value turned out to be 0.063. The “area with substrate ENGYFQS” value came to 0.0548, the “area with substrate ENHYFQS” value was determined as 0.0614, the “area with substrate ENIYFQS” value amounted to 0.101 and the “area with substrate ENMYFQS” value came to 0.0887. For the same variant, the “area with substrate ENPYFQS” value was 0.0555, the “area with substrate ENQYFQS” value came out at 0.0689, the “area with substrate ENSYFQS” value was 0.051 and the “area with substrate ENTYFQS” value stood at 0.055. Further, the “area with substrate ENVYFQS” value amounted to 0.0824.

In the case of MGESLFKGPRDYNPISSSICHLTNFSDGHTTSLYGIGFGPFIITNKHLFRRNNGTLVVQSLHGVFKVKDTTTLQQHLVDGRDMIIIRMPKDFPPFPQKLKFREPQREERICLVTTNFQTKSMSSMVSDTSCTFPSGDGIFWKHWIQTKDGQCGSPLVSTRDGFIVGIHSASNFTNTNNYFTSVPKNFMELLTNQEAQQWVSGWRLNADSVLWGGHKVFMVKPEEPFQPVKEATQL [E25F], the “area with substrate ENAYFQS” value came to 0.0738, the “area with substrate ENCYFQS” value was determined as 0.0727, the “area with substrate ENDYFQS” value was 0.0599 and the “area with substrate ENEYFQS” value was 0.0626. Besides, the “area with substrate ENFYFQS” value was 0.104, the “area with substrate ENGYFQS” value is 0.0553, the “area with substrate ENKYFQS” value worked out at 0.0165 and the “area with substrate ENNYFQS” value came to 0.0607. For the same variant, the “area with substrate ENPYFQS” value stood at 0.0546, the “area with substrate ENQYFQS” value is 0.061, the “area with substrate ENRYFQS” value came out at 0.0615 and the “area with substrate ENSYFQS” value was found to be 0.0705. The “area with substrate ENTYFQS” value was found to be 0.0644 and the “area with substrate ENVYFQS” value was found to be 0.0498.

As for MGESLFGGPRDYNPISSSICHLTNESDGHTTSLYGIGFGPFIITNKHLFRRNNGTLVVQSLHGVFKVKDTTTLQQHLVDGRDMIIIRMPKDFPPFPQKLKFREPQREERICLVTTNFQTKSMSSMVSDTSCTFPSGDGIFWKHWIQTKDGQCGSPLVSTRDGFIVGIHSASNFTNTNNYFTSVPKNFMELLTNQEAQQWVSGWRLNADSVLWGGHKVFMVKPEEPFQPVKEATQL [K7G], the “area with substrate ENAYFQS” value worked out at 0.0613, the “area with substrate ENCYFQS” value stood at 0.103, the “area with substrate ENDYFQS” value came out at 0.0338 and the “area with substrate ENNYFQS” value worked out at 0.0374. In addition, the “area with substrate ENQYFQS” value was found to be 0.0698, the “area with substrate ENRYFQS” value was found to be 0.0492, the “area with substrate ENSYFQS” value was found to be 0.0693 and the “area with substrate ENTYFQS” value was 0.0631.

In the case of MGESLFLGPRDYNPISSSICHLTNESDGHTTSLYGIGFGPFIITNKHLFRRNNGTLVVQSLHGVFKVKDTTTLQQHLVDGRDMIIIRMPKDFPPFPQKLKFREPQREERICLVTTNFQTKSMSSMVSDTSCTFPSGDGIFWKHWIQTKDGQCGSPLVSTRDGFIVGIHSASNFTNTNNYFTSVPKNFMELLTNQEAQQWVSGWRLNADSVLWGGHKVFMVKPEEPFQPVKEATQL [K7L], the “area with substrate ENAYFQS” value is 0.0397, the “area with substrate ENCYFQS” value was 0.0621, the “area with substrate ENDYFQS” value turned out to be 0.0725 and the “area with substrate ENEYFQS” value is 0.0683. For the same variant, the “area with substrate ENNYFQS” value turned out to be 0.062, the “area with substrate ENPYFQS” value was 0.0557, the “area with substrate ENSYFQS” value was 0.0747 and the “area with substrate ENVYFQS” value turned out to be 0.0617. Further, the “area with substrate ENWYFQS” value came to 0.0075.

MGESLFKGPRCYNPISSSICHLTNESDGHTTSLYGIGFGPFIITNKHLFRRNNGTLVVQSLHGVFKVKDTTTLQQHLVDGRDMIIIRMPKDFPPFPQKLKFREPQREERICLVTTNFQTKSMSSMVSDTSCTFPSGDGIFWKHWIQTKDGQCGSPLVSTRDGFIVGIHSASNFTNTNNYFTSVPKNFMELLTNQEAQQWVSGWRLNADSVLWGGHKVFMVKPEEPFQPVKEATQL [D11C]: the “area with substrate ENAYFQS” value turned out to be 0.0719, the “area with substrate ENCYFQS” value was found to be 0.0517, the “area with substrate ENDYFQS” value is 0.06 and the “area with substrate ENEYFQS” value is 0.0798. Moreover, the “area with substrate ENFYFQS” value was determined as 0.0635, the “area with substrate ENGYFQS” value amounted to 0.0739, the “area with substrate ENHYFQS” value amounted to 0.0679 and the “area with substrate ENIYFQS” value came to 0.153. The “area with substrate ENKYFQS” value amounted to 0.06, the “area with substrate ENMYFQS” value amounted to 0.028, the “area with substrate ENNYFQS” value came out at 0.0624 and the “area with substrate ENQYFQS” value came out at 0.0662. In addition, the “area with substrate ENRYFQS” value is 0.055, the “area with substrate ENSYFQS” value stood at 0.0643, the “area with substrate ENTYFQS” value was determined as 0.0524 and the “area with substrate ENVYFQS” value turned out to be 0.0666. Moreover, the “area with substrate ENWYFQS” value stood at 0.0439 and the “area with substrate ENYYFQS” value was found to be 0.0577.

Turning to MGESLFKGPRDYNPISSSICHQTNESDGHTTSLYGIGFGPFIITNKHLFRRNNGTLVVQSLHGVFKVKDTTTLQQHLVDGRDMIIIRMPKDFPPFPQKLKFREPQREERICLVTTNFQTKSMSSMVSDTSCTFPSGDGIFWKHWIQTKDGQCGSPLVSTRDGFIVGIHSASNFTNTNNYFTSVPKNFMELLTNQEAQQWVSGWRLNADSVLWGGHKVFMVKPEEPFQPVKEATQL [L22Q], the “area with substrate ENAYFQS” value is 0.0415, the “area with substrate ENCYFQS” value was 0.0431, the “area with substrate ENDYFQS” value is 0.0216 and the “area with substrate ENEYFQS” value came to 0.0505. Besides, the “area with substrate ENFYFQS” value amounted to 0.0456, the “area with substrate ENGYFQS” value came to 0.055, the “area with substrate ENHYFQS” value is 0.044 and the “area with substrate ENIYFQS” value is 0.0288. Moreover, the “area with substrate ENNYFQS” value worked out at 0.0474, the “area with substrate ENQYFQS” value was 0.0285, the “area with substrate ENRYFQS” value was determined as 0.0414 and the “area with substrate ENSYFQS” value came to 0.0519. Also, the “area with substrate ENTYFQS” value stood at 0.0394 and the “area with substrate ENYYFQS” value was 0.0479.
